Reference: the supplement of paper PMC12217912
The list shows a part of the results. The full chains were built here from the parent and the listed change. Values near 0.05 are background.

B1: TEV protease; numbered along this chain (parent)
chain: MGESLFKGPRDYNPISSSICHLTNESDGHTTSLYGIGFGPFIITNKHLFRRNNGTLVVQSLHGVFKVKDTTTLQQHLVDGRDMIIIRMPKDFPPFPQKLKFREPQREERICLVTTNFQTKSMSSMVSDTSCTFPSGDGIFWKHWIQTKDGQCGSPLVSTRDGFIVGIHSASNFTNTNNYFTSVPKNFMELLTNQEAQQWVSGWRLNADSVLWGGHKVFMVKPEEPFQPVKEATQL

Variants of: B1
Test: raw area under fraction-flipped curve 0-4 h after induction (AUC4h, not background-subtracted), DNA-recorder readout of cleavage of the substrate (dimensionless); higher = more cleavage of the substrate by the protease variant
Settings: temperature: 34 °C; time window: 0-4 h after rhamnose induction
Method: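 In vivo DNA recorder in E. coli TOP10(DE3) ΔrhaA at 34 °C. Each TEVp single-site mutant (parent TEVp 0) is paired with a single-site variant of the 7-mer TEVs (canonical ENLYFQ|S). The substrate sits between flexible linkers in a Bxb1-sfGFP-TEVs-SsrA fusion, so cleavage stabilises Bxb1 and speeds flipping of a recombination array, read by NGS. The value is the raw area under the fraction-flipped curve over 0-4 h after rhamnose induction (AUC4h), with ≥20 reads per time point. It is not background-subtracted; inactive controls average about 0.047.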
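Further: Bxb1 expression induced with 0.2% (w/v) L-rhamnose at OD600 near 0.5, cultures sampled hourly, flipped fraction per protease–substrate barcode pair counted by paired-end Illumina sequencing.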

Variant | area with substrate ENLYFQA | area with substrate ENLYFQD | area with substrate ENLYFQE | area with substrate ENLYFQG | area with substrate ENLYFQI | area with substrate ENLYFQK | area with substrate ENLYFQL | area with substrate ENLYFQM | area with substrate ENLYFQN | area with substrate ENLYFQP | area with substrate ENLYFQQ | area with substrate ENLYFQR | area with substrate ENLYFQS | area with substrate ENLYFQT | area with substrate ENLYFQV | area with substrate ENLYFQW | area with substrate ENLYFQY | area with substrate ENLYFQC | area with substrate ENLYFQH | area with substrate ENLYFQF
MGESLFKGPRDYNPISSSICHLTNESDGHTTSLYGIGFGPFIITNKHLFRRNNGTLVVQSLHGVFKVKDTTTLQQHLVDGRDMIIIRMPKDFPPFPQKLKFREIQREERICLVTTNFQTKSMSSMVSDTSCTFPSGDGIFWKHWIQTKDGQCGSPLVSTRDGFIVGIHSASNFTNTNNYFTSVPKNFMELLTNQEAQQWVSGWRLNADSVLWGGHKVFMVKPEEPFQPVKEATQL [P104I] | 0.0655 | 0.0688 | 0.065 | 0.0665 | 0.0321 | 0.0459 | 0.0367 | 0.0563 | 0.0489 | 0.0546 | 0.0595 | 0.0586 | 0.0659 | 0.0523 | 0.0392 | 0.0534 | 0.0405 | – | – | –
MGESLFKGPRDYNPISSSICHLTNESDGHTTSLYGIGFGPFIITNKHLFRRNNGTLVVQSLHGVFKVKDTTTLQQHLVDGRDMIIIRMPKDFPPFPQKLKFRELQREERICLVTTNFQTKSMSSMVSDTSCTFPSGDGIFWKHWIQTKDGQCGSPLVSTRDGFIVGIHSASNFTNTNNYFTSVPKNFMELLTNQEAQQWVSGWRLNADSVLWGGHKVFMVKPEEPFQPVKEATQL [P104L] | 0.0596 | 0.0474 | 0.0667 | 0.0752 | 0.041 | 0.0579 | 0.03 | 0.0531 | 0.0576 | – | – | 0.0557 | 0.0558 | 0.0536 | 0.0517 | 0.0553 | 0.0532 | – | – | –
MGESLFKGPRDYNPISSSICHLTNESDGHTTSLYGIGFGPFIITNKHLFRRNNGTLVVQSLHGVFKVKDTTTLQQHLVDGRDMIIIRMPKDFPPFPQKLKFREMQREERICLVTTNFQTKSMSSMVSDTSCTFPSGDGIFWKHWIQTKDGQCGSPLVSTRDGFIVGIHSASNFTNTNNYFTSVPKNFMELLTNQEAQQWVSGWRLNADSVLWGGHKVFMVKPEEPFQPVKEATQL [P104M] | 0.0588 | 0.048 | – | – | 0.0559 | 0.0416 | 0.0534 | 0.0511 | 0.0441 | 0.0375 | 0.0587 | 0.0553 | 0.0539 | 0.0524 | 0.033 | 0.051 | 0.0432 | 0.0616 | – | –
MGESLFKGPRDYNPISSSICHLTNESDGHTTSLYGIGFGPFIITNKHLFRRNNGTLVVQSLHGVFKVKDTTTLQQHLVDGRDMIIIRMPKDFPPFPQKLKFRETQREERICLVTTNFQTKSMSSMVSDTSCTFPSGDGIFWKHWIQTKDGQCGSPLVSTRDGFIVGIHSASNFTNTNNYFTSVPKNFMELLTNQEAQQWVSGWRLNADSVLWGGHKVFMVKPEEPFQPVKEATQL [P104T] | 0.0565 | – | – | 0.0426 | 0.049 | – | 0.033 | – | 0.0698 | 0.0632 | – | – | 0.062 | 0.0534 | 0.053 | 0.0083 | – | 0.0597 | 0.0297 | –
MGESLFKGPRDYNPISSSICHLTNESDGHTTSLYGIGFGPFIITNKHLFRRNNGTLVVQSLHGVFKVKDTTTLQQHLVDGRDMIIIRMPKDFPPFPQKLKFREWQREERICLVTTNFQTKSMSSMVSDTSCTFPSGDGIFWKHWIQTKDGQCGSPLVSTRDGFIVGIHSASNFTNTNNYFTSVPKNFMELLTNQEAQQWVSGWRLNADSVLWGGHKVFMVKPEEPFQPVKEATQL [P104W] | 0.0384 | 0.0313 | – | – | – | 0.0483 | 0.0448 | 0.0491 | 0.0422 | 0.0431 | – | 0.0502 | 0.0561 | 0.0473 | – | 0.0512 | – | 0.0511 | 0.0512 | 0.0511
MGESLFKGPRDYNPISSSICHLTNESDGHTTSLYGIGFGPFIITNKHLFRRNNGTLVVQSLHGVFKVKDTTTLQQHLVDGRDMIIIRMPKDFPPFPQKLKFREPWREERICLVTTNFQTKSMSSMVSDTSCTFPSGDGIFWKHWIQTKDGQCGSPLVSTRDGFIVGIHSASNFTNTNNYFTSVPKNFMELLTNQEAQQWVSGWRLNADSVLWGGHKVFMVKPEEPFQPVKEATQL [Q105W] | 0.0892 | – | – | 0.0832 | 0.0538 | 0.0654 | 0.0629 | 0.0714 | 0.0701 | 0.0668 | 0.0797 | 0.0531 | 0.0972 | 0.0595 | 0.0581 | 0.0895 | – | 0.119 | 0.0752 | 0.0635
MGESLFKGPRDYNPISSSICHLTNESDGHTTSLYGIGFGPFIITNKHLFRRNNGTLVVQSLHGVFKVKDTTTLQQHLVDGRDMIIIRMPKDFPPFPQKLKFREPQDEERICLVTTNFQTKSMSSMVSDTSCTFPSGDGIFWKHWIQTKDGQCGSPLVSTRDGFIVGIHSASNFTNTNNYFTSVPKNFMELLTNQEAQQWVSGWRLNADSVLWGGHKVFMVKPEEPFQPVKEATQL [R106D] | 0.0966 | 0.0969 | – | – | 0.0578 | 0.0637 | 0.0755 | – | 0.0563 | 0.054 | 0.0575 | 0.0624 | 0.101 | 0.0659 | 0.0567 | 0.0548 | 0.0792 | 0.166 | 0.0622 | 0.0626
MGESLFKGPRDYNPISSSICHLTNESDGHTTSLYGIGFGPFIITNKHLFRRNNGTLVVQSLHGVFKVKDTTTLQQHLVDGRDMIIIRMPKDFPPFPQKLKFREPQREERICCVTTNFQTKSMSSMVSDTSCTFPSGDGIFWKHWIQTKDGQCGSPLVSTRDGFIVGIHSASNFTNTNNYFTSVPKNFMELLTNQEAQQWVSGWRLNADSVLWGGHKVFMVKPEEPFQPVKEATQL [L112C] | 0.0855 | – | – | 0.0787 | – | 0.0683 | 0.0616 | 0.0443 | 0.0628 | 0.0435 | – | 0.0692 | 0.0831 | 0.0487 | 0.0676 | – | 0.0623 | 0.0789 | 0.055 | –
